# Source: PubChem BioAssay AID1347165 (National Center for Advancing Translational Sciences (NCATS), 2019)
# The campaign covered roughly 220,000 compounds. About 5,700 (2.6%) were called active. Inconclusive results, whose numbers are uncertain, are shown with a selection of clear calls. The call rests on the fitted dose curve; in most records, active means well fitted inhibition curve with a large enough effect; inconclusive means small, poorly fitted or top-dose-only effect; inactive means no such curve, though single readings can be large or run the other way. Where the call is inconclusive, the potency comes from a doubtful curve fit.
# Target: Lysine-specific demethylase 5B (Homo sapiens) (UniProt Q9UGL1)
# Test: Primary screen for KDM5B Histone Demethylases FDH-coupled qHTS; further: nearly all actives have a fitted effect of over 70% in size; on activity change, negative = inhibition: 0% is about no effect
# Details: FDH-coupled NADH fluorescence (FDH is formaldehyde dehydrogenase); activity change, negative = inhibition: at 57.7 µM (top of the series) unless noted
# In short: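 Here, H3K4me3 peptide (12.5 µM in substrate mix) is demethylated by KDM5BΔAP, 200 nM final, after 10 min compound exposure. Formaldehyde product is coupled through FDH (0.25 U/mL in mix) to NADH fluorescence; 30-min ΔRFU feeds dose-response curves.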
# Potency means the concentration at half of the fitted maximal effect; tags describe the fitted curve by direction and shape.
# Chain of UniProt Q9UGL1 (Q9UGL1 whole entry, looked up): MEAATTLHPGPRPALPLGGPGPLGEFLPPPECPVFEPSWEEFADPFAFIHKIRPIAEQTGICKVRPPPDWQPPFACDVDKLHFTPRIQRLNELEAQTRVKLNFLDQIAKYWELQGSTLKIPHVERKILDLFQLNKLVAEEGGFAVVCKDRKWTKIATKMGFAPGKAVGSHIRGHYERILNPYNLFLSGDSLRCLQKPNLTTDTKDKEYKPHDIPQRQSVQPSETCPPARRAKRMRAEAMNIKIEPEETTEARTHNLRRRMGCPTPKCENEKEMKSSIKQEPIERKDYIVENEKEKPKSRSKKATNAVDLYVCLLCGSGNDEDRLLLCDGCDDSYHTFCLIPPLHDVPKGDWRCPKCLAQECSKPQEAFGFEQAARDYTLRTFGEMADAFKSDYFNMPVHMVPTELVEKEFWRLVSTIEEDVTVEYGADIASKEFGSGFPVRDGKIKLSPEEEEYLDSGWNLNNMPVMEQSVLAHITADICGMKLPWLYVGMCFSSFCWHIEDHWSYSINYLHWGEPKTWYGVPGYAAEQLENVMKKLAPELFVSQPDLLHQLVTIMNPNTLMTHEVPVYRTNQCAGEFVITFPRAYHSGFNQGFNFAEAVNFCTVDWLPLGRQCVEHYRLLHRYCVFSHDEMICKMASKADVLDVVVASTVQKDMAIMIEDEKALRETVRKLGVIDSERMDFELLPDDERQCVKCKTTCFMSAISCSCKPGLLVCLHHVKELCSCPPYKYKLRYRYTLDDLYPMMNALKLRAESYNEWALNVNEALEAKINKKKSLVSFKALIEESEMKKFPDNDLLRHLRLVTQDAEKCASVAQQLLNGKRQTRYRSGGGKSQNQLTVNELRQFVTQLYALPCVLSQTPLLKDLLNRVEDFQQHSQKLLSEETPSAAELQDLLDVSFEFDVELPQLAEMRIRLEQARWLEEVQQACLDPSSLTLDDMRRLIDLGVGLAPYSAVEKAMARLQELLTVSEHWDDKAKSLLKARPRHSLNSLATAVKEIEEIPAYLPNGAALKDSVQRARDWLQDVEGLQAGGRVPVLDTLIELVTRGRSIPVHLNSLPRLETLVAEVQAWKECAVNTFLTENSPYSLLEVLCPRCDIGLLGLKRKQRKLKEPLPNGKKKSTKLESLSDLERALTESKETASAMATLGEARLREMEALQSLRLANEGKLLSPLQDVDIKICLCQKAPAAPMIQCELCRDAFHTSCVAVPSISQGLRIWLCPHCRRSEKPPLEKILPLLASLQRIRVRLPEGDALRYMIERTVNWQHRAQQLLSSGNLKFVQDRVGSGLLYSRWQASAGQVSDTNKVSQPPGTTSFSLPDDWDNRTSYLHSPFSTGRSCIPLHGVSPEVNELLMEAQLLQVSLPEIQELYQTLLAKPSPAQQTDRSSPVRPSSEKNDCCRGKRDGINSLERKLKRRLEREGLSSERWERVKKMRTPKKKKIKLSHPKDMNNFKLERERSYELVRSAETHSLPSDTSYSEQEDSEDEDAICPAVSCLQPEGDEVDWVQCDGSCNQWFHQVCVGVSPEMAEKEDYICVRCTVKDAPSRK
Compound,Potency,"activity change, negative = inhibition"
Cc1cccc(C)c1-c1nc(C(=O)NC2CC2)n2ccccc12,active: 100 µM,
Cc1cc(Cl)ccc1S(=O)(=O)Nc1cccc(NC(N)=O)c1,,inactive: 5.4%
COc1ccc(C(C)=O)cc1COC(=O)CCc1ccc2c(c1)OCO2,,inactive: -2%
Cc1ccccc1-c1cnc2[nH]cc(CC(=O)NC(C)C)c2c1,"inconclusive: 35.5 µM [inhibitor, single point]",
CC(C)N1C(=O)C2(CCCC2)C1C(=O)N1CCN(c2ncccn2)CC1 (stereo not given),"inconclusive: 35.5 µM [inhibitor, partial curve, poor fit]",
CCOc1ccc(CNc2cc(C)nc3nc(-c4cccc(C)c4)nn23)cc1OC,"inconclusive: 25.1 µM [inhibitor, single point]",
O=C1NCCCCCN(Cc2cn[nH]c2-c2ccc(F)cc2)[C@H]2CCC[C@@H]12,"inconclusive: 20 µM [inhibitor, partial curve, poor fit]",
CCN(Cc1nc2ccccc2c(=O)[nH]1)C(=O)Cc1csc(-c2ccc(OC)cc2)n1,,inactive: -6.33%
O=C(c1ccnnc1)N1CCC2(CCN(Cc3ccccn3)CC2)C(CO)C1 (stereo not given),"inconclusive: 8.91 µM [inhibitor, partial curve, poor fit]",
O=C([C@@H]1C[C@H](Oc2cccnc2)CN1C(=O)c1n[nH]c2ccccc12)N1CCOCC1,"inconclusive: 35.5 µM [inhibitor, single point]",
CC(=O)c1ccc(NC(=O)c2nc(-c3ccccc3)n(-c3ccc(C)cc3)n2)cc1,"inconclusive: 28.2 µM [inhibitor, partial curve, poor fit]",
CCc1ccc(-c2cc(C(=O)NCc3cccnc3)c3ccccc3n2)cc1,"inconclusive: 35.5 µM [inhibitor, single point]",
CN(Cc1cc(C[C@@H]2C[C@H](NCc3ccccn3)C2(C)C)no1)c1ccccc1,"inconclusive: 35.5 µM [inhibitor, partial curve, poor fit]",
CN(C)CC1(O)CCCN(c2ncccc2C(N)=O)CC1 (stereo not given),"inconclusive: 3.98 µM [inhibitor, partial curve, poor fit]",
O=S(=O)(c1cccc(F)c1)N1CCC(N2CCOCC2)CC1,,inactive: 4.33%
O=C(CCCn1c(=O)c2cccn2c2ccc(F)cc21)N1CCN(c2ccccn2)CC1,,inactive: 11.3%
CCOc1ccc(N/C=C/C(=O)c2ccc(C(C)C)cc2)cc1,,inactive: -17.8%
CCc1ccc(-c2nc(CS(=O)CC(=O)NCc3ccc(F)cc3)c(C)o2)cc1 (stereo not given),"inconclusive: 15.8 µM [inhibitor, partial curve, poor fit]",

Compound,Potency,"activity change, negative = inhibition"
COc1ccc(/C=C(\C#N)C(=O)NC(C)c2ccccc2)cc1O (stereo not given),"inconclusive: 20 µM [inhibitor, partial curve, poor fit]",
Cc1ccc(CNS(=O)(=O)c2c(C)nc3sc(C)cn3c2=O)cc1,"inconclusive: 28.2 µM [inhibitor, partial curve, poor fit]",
CC(=O)Nc1ccc(SCC(O)COc2ccccc2C(C)(C)C)cc1 (stereo not given),,inactive: 15.8%
CCN1CCN(c2ccc(C(=O)OC)cc2NC(=O)COc2ccc(C(C)(C)C)cc2)CC1,"inconclusive: 39.8 µM [inhibitor, single point]",
O=C(NCc1coc(-c2cccs2)n1)c1cc(Cl)ccc1Cl,"inconclusive: 14.1 µM [inhibitor, partial curve, poor fit]",
O=CN1CCN(C(=O)Cn2ccc3ccc(OCc4ccccc4)cc32)CC1,,inactive: 1.78%
COc1ccc(C(=O)NC2CCN(c3cc(C(F)(F)F)ncn3)CC2)c(C)c1,,inactive: -14.4%
Cc1ccc(NC(=O)Cn2ccn3nc4c(c3c2=O)CC(C)CC4)cc1C (stereo not given),"inconclusive: 22.4 µM [inhibitor, single point]",
COc1ccc2c(C)c(CCC(=O)Nc3cccc(C)c3C)c(=O)oc2c1,"inconclusive: 15.8 µM [inhibitor, partial curve, poor fit]",
CNCCN1C(=O)CC[C@H]2CN(C(=O)CN3CC(=O)NC3=O)CC[C@H]21,,inactive: -17.3%
CC(C)(C)c1ccc(-c2cc(C[C@H]3CNCC[C@H]3CC(=O)N3CCC(n4c(=O)[nH]c5ccccc54)CC3)no2)cc1,"inconclusive: 25.1 µM [inhibitor, single point]",
O=C(CCC[C@H]1NC[C@@H]2C[C@H]1CN(Cc1ccccc1)C2)NCc1cc(F)cc(F)c1,"inconclusive: 14.1 µM [inhibitor, partial curve]",
CCCc1noc(-c2cccn3c(CNC(=O)c4ccc(Cl)cc4)nnc23)n1,"inconclusive: 3.98 µM [inhibitor, partial curve, poor fit]",
CCCC(C(=O)NCc1ccc(OC)c(OC)c1)c1ccccc1 (stereo not given),,inactive: 20.1%
COCCN1CCCCCC(O)c2cc(C(=O)NCCCN3CCCC3=O)ccc21 (stereo not given),"inconclusive: 39.8 µM [inhibitor, single point]",
O=c1c2cc(-c3ccc(F)cc3)nn2ccn1CC(O)c1ccc(F)cc1 (stereo not given),active: 20 µM,
CSc1cccc(N/C=C/C(=O)c2ccc(C)c(C)c2)c1,"inconclusive: 39.8 µM [inhibitor, single point]",
